Source: patent publication US20110182903A1, “NOVEL SOLUBLE CD83 POLYPEPTIDES, FORMULATIONS AND METHODS OF USE” (priority 2008, published 2011)

Assay: pH degradation rate study, SE-HPLC
Assay type: physicochemical
Protocol: To further investigate the role of pH and its influence on protein stability, wild-type hCD83ext (lot 021 in PBS at pH 7.6) was freshly thawed and analyzed (first row of Table 6) or stored at room temperature and 2-8° C., at pH's of 4, 5, 6, 7, 8 and 9. Samples were kept at −70° C. until analyzed, after 1,2, 4 and 10 days of storage. These samples were then analyzed by SEC HPLC (Table 6) or using by SDS-PAGE Bioanalyzer (under reduced and non-reduced conditions; FIGS. 31-35).

B1: hCD83ext-wt: recombinant human sCD83 (CD83 extracellular domain) purified from E. coli, wild type form, SEQ ID NO:5 (protein)
chain: GSPGTPEVKVACSEDVDLPCTAPWDPQVPYTVSWVKLLEGGEERMETPQEDHLRGQHYHQKGQNGSFDAPNERPYSLKIRNTTSCNSGTYRCTLQDPDGQRNLSGKVILRVTGCPAQRKEETFKKYRAEI
modifications: Synthetic extracellular domain of human CD83 with the addition of Gly-Ser-Pro-Gly at the N-terminus and Ile at the C-terminus
% AGGREGATE (pH 7, RT, 1 day): 0.00%
% FRAGMENTS (pH 7, RT, 1 day): 47.89%
% AGGREGATE (pH 7, RT, 10 days): 17.27%
% FRAGMENTS (pH 7, RT, 10 days): 54.12%
% MONOMER (pH 7, RT, 10 days): 28.61%
% AGGREGATE (pH 8, 2-8 C., 1 day): 5.76%
% FRAGMENTS (pH 8, 2-8 C., 1 day): 35.49%
% MONOMER (pH 8, 2-8 C., 1 day): 58.75%
% AGGREGATE (pH 8, 2-8 C., 10 days): 9.75%
% FRAGMENTS (pH 8, 2-8 C., 10 days): 77.99%
% MONOMER (pH 8, 2-8 C., 10 days): 12.26%
% AGGREGATE (pH 8, RT, 1 day): 4.66%
% FRAGMENTS (pH 8, RT, 1 day): 42.02%
% MONOMER (pH 8, RT, 1 day): 53.32%
% AGGREGATE (pH 8, RT, 10 days): 22.25%
% FRAGMENTS (pH 8, RT, 10 days): 46.63%
% MONOMER (pH 8, RT, 10 days): 31.12%
% AGGREGATE (pH 9, 2-8 C., 1 day): 9.03%
% FRAGMENTS (pH 9, 2-8 C., 1 day): 31.91%
% MONOMER (pH 9, 2-8 C., 1 day): 59.06%
% AGGREGATE (pH 9, 2-8 C., 10 days): 16.05%
% FRAGMENTS (pH 9, 2-8 C., 10 days): 37.08%
% MONOMER (pH 9, 2-8 C., 10 days): 46.87%
% AGGREGATE (pH 9, RT, 1 day): 4.79%
% FRAGMENTS (pH 9, RT, 1 day): 37.14%
% MONOMER (pH 9, RT, 1 day): 58.07%
% AGGREGATE (pH 9, RT, 10 days): 20.16%
% FRAGMENTS (pH 9, RT, 10 days): 44.27%
% MONOMER (pH 9, RT, 10 days): 35.57%
